Test [1] has as its target T1, PPARα (endogenous, HL1 mouse cardiomyocytes) (mouse (endogenous in HL1)) (UniProt P23204).
T1 sequence: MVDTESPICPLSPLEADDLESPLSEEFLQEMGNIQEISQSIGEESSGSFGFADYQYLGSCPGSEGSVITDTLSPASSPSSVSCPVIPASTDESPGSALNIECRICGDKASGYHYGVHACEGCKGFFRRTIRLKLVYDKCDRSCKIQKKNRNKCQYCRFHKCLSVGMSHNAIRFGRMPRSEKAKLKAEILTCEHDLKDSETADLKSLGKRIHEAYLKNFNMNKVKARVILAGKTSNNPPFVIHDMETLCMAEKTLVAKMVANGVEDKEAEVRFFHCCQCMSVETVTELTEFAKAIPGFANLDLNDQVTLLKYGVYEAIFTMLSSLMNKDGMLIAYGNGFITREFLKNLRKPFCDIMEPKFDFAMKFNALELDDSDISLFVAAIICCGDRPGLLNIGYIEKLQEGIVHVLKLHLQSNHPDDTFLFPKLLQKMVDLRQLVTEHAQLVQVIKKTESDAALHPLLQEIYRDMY
Put plainly: co-IP; endogenous USP4 and PPARα in lysates of HL1 mouse cardiomyocytes, NRCMs and AC16 human cardiomyocytes; immunoblots. For orientation: A western blot detects proteins with antibodies after separation by electrophoresis.

Test [2] deals with T2, PPARα (endogenous, neonatal rat cardiomyocytes) (rat (endogenous in NRCMs)) (UniProt P37230).
T2 sequence: T1 sequence with I41L, G50S, V85A, I86V, A88T, S96N, V135A, G207A, D265N
The test is described as above.

Test [3] deals with T3, PPARα (endogenous, AC16 human cardiomyocytes) (human (endogenous in AC16)) (UniProt Q07869).
T3 sequence: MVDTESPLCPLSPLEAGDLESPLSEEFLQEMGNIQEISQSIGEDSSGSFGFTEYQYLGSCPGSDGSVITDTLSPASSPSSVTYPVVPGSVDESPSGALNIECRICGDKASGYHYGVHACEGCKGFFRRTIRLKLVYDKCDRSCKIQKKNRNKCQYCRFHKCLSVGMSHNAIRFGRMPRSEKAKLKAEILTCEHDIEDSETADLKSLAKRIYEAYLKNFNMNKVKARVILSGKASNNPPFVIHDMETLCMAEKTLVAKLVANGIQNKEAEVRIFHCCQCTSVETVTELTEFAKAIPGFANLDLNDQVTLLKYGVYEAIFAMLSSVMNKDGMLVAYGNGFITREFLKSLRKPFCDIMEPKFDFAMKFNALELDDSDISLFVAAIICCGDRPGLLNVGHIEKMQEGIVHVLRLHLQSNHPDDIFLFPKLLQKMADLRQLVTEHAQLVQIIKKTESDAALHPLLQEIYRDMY
Described as above.

Test [4] deals with T4, Flag-PPARα (peroxisome proliferator-activated receptor alpha) (UniProt Q07869).
T4 sequence: T3 sequence
Put plainly: co-IP; HEK293T cells transfected 24 hours with Flag-PPARα and Myc-USP4 (full-length or truncated), alone or in combination; lysates immunoprecipitated with Flag or Myc antibodies, blotted with Flag or Myc antibodies.

Test [5] deals with T5, Flag-PPARα with deletion of amino acids 110-194 (DBD) (UniProt Q07869).
T5 sequence: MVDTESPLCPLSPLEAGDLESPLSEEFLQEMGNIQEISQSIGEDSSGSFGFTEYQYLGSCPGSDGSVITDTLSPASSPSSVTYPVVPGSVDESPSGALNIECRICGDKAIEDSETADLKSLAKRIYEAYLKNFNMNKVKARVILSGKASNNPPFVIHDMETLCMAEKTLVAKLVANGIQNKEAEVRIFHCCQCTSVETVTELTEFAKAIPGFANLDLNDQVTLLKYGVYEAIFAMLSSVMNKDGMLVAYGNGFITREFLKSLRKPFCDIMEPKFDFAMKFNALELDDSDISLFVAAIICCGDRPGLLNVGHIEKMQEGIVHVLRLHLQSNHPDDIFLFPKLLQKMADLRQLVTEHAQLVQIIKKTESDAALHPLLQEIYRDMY
The description is as above.

Residue numbers refer to the chain shown, from its start. These are yes or no findings as the source states them, for the method shown. Binding seen in cells or lysates may run through a third protein. Some binding calls cover weakened binding; strength is not graded here. For some assays here: Tags and fused reporters may be left off the sequences shown.

B1: USP4 (endogenous, HL1 mouse cardiomyocytes) (enzyme, UniProt P35123 1-962)
chain: MAEGRGSRERPDVETQKTELGALMGTTLQRGAQWYLIDSRWFKQWKKYVGFDSWDMYNVGEHNLFPGPIDNSGLFSDPESQTLKEHLIDELDYVLVPAEAWNKLLNWYGCVEGQQPIVRKVVEHGLFVKHCKVEVYLLELKLCENSDPTNVLSCHFSKADTIATIEKEMRKLFNIPAERETRLWNKYMSNTYEQLSKLDNTIQDAGLYQGQVLVIEPQNEDGTWPRQSLQSKSSTAPSRNFTTSSKPSASPYCSVSASLIANGDSTNSSGMHSSGVSRGGSGFSASYNCQEPPSPHIQPGLCGLGNLGNTCFMNSALQCLSNTAPLTEYFLKDEYEAEINRDNPLGMKGEIAEAYAELIKQMWSGRDTHVAPRMFKTQVGRFAPQFSGYQQQDSQELLAFILDGLHEDLNRVKKKPYLEPKDANGRPDAVVAKEAWENHRLRNDSVIVDTFHGLFKSTLVCPECAKVSVTFDPFCYLTLPLPLKKDRIMEVFLVPADPQCRPIQYRVTVPLMGAISDLCEALSKLSGIAAENMVVTDVYNHRFHKIFQMDEGLSHITPRDDIFVYEVCNTSMDGSECITLPVYFREKKSRPSSASSGAVLYGQPLLVSVPKHKLTLESLYQAVCDRISRYIKQPLPDEFLSSPLEPGACNGSRSSYEGDEEEEMDHQEEGKEQLSEVEGSGEDDQGDDHSESAQKVKGQPRHKRLFTFSLVNSCGTADINSLATDGKLLKLNSRSTLAIDWDSETRSLYFDEQESEACEKHLSMSQPQKKKKAAVALRECIELFTTMETLGEHDPWYCPTCKKHQQATKKFDLWSLPKILVVHLKRFSYNRYWRDKLDTVVEFPVRALNMSEFVCDRSARPYVYDLIAVSNHYGAMGVGHYTAYAKNRLNGKWYYFDDSSVSLASEDQIVTKAAYVLFYQRRDDECSSTSSLGSFPGSDGGVKLSSSHQGMGDEEAYNMDTN
In the case of B1, in test [1], the binding entry is listed as “binds”.

B2: USP4 (endogenous, neonatal rat cardiomyocytes) (enzyme, UniProt B2GUZ1 1-961)
chain: MAEGRGTHERPDVETQKTELGALMGTTLQRGAQWYLIDSRWFKQWKKYVGFDSWDMYNVGEHNLFPGPIDNSGLFSDPESQTLKEHLIDELDYVLVPTEAWNKLLNWYGCVEGQQPIVRKVVEHGLFVKHCKVEVYLLELKLCENSDPTNVLSCHFSKADTIATIEKEMRKLFNIPAERETRLWNKYMSNTYEQLSKLDNTIQDAGLYQGQVLVIEPQNEDGTWPRQTLQSKSSTAPSRNFTTSSKPSASPYSSMSASLIANGDSTNSSGMHNSGVSRGGAGFSASYNCQEPPSPHIQPGLCGLGNLGNTCFMNSALQCLSNTGPLTEYFLKDEYEAEINRDNPLGMKGEIAEAYAELIKQMWSGRDTHVAPRMFKTQVGRFAPQFSGYQQQDSQELLAFILDGLHEDLNRVKKKPYLEPKDANGRPDAVVAKEAWENHRLRNDSVIVDTFHGLFKSTLVCPECAKVSVTFDPFCYLTLPLPLKKDRIMEVFLVPADPHCRPIQYRVTVPLMGAISDLCEALSKLSGIAAENMVVTDVYNHRFHKIFQMDEGLSHITPRDDIFVYEICTTPMDGSEYITLPVYFREKKSRPSSTSSGAVLYGQPLLVSVPKHRLTLESLYQAVCERISRYIKQPLPEEFLSSPLEPGACNGSRGSYEGDEEEMDHQEEGKEQLSEVEESGEDSQGGDPTETTQKAKGPPRHKRLFTFSLVNSCGTADINSLATDGKLLKLNSRSTLAIDWDSETRSLYFDEQESEACEKHTSMSQPQKKKKAAIALRECIELFTTMETLGEHDPWYCPTCKKHQQATKKFDLWSLPKILVVHLKRFSYNRYWRDKLDTVVEFPVRALNMSEFVCDRAARPYVYDLIAVSNHYGAMGVGHYTAYAKNRLNGKWYYFDDSSVSLASEDQIVTKAAYVLFYQRRDDECPSTSSPVSFPGSDGGAKLSSSQQDLGEEEAYTMDTN
For B2, in test [2], the binding entry is recorded as “binds”.

B3: USP4 (endogenous, AC16 human cardiomyocytes) (enzyme, UniProt Q13107 1-963)
chain: MAEGGGCRERPDAETQKSELGPLMRTTLQRGAQWYLIDSRWFKQWKKYVGFDSWDMYNVGEHNLFPGPIDNSGLFSDPESQTLKEHLIDELDYVLVPTEAWNKLLNWYGCVEGQQPIVRKVVEHGLFVKHCKVEVYLLELKLCENSDPTNVLSCHFSKADTIATIEKEMRKLFNIPAERETRLWNKYMSNTYEQLSKLDNTVQDAGLYQGQVLVIEPQNEDGTWPRQTLQSKSSTAPSRNFTTSPKSSASPYSSVSASLIANGDSTSTCGMHSSGVSRGGSGFSASYNCQEPPSSHIQPGLCGLGNLGNTCFMNSALQCLSNTAPLTDYFLKDEYEAEINRDNPLGMKGEIAEAYAELIKQMWSGRDAHVAPRMFKTQVGRFAPQFSGYQQQDSQELLAFLLDGLHEDLNRVKKKPYLELKDANGRPDAVVAKEAWENHRLRNDSVIVDTFHGLFKSTLVCPECAKVSVTFDPFCYLTLPLPLKKDRVMEVFLVPADPHCRPTQYRVTVPLMGAVSDLCEALSRLSGIAAENMVVADVYNHRFHKIFQMDEGLNHIMPRDDIFVYEVCSTSVDGSECVTLPVYFRERKSRPSSTSSASALYGQPLLLSVPKHKLTLESLYQAVCDRISRYVKQPLPDEFGSSPLEPGACNGSRNSCEGEDEEEMEHQEEGKEQLSETEGSGEDEPGNDPSETTQKKIKGQPCPKRLFTFSLVNSYGTADINSLAADGKLLKLNSRSTLAMDWDSETRRLYYDEQESEAYEKHVSMLQPQKKKKTTVALRDCIELFTTMETLGEHDPWYCPNCKKHQQATKKFDLWSLPKILVVHLKRFSYNRYWRDKLDTVVEFPIRGLNMSEFVCNLSARPYVYDLIAVSNHYGAMGVGHYTAYAKNKLNGKWYYFDDSNVSLASEDQIVTKAAYVLFYQRRDDEFYKTPSLSSSGSSDGGTRPSSSQQGFGDDEACSMDTN
As for B3, the binding result in test [3] was “binds”.

B4: Myc-USP4 (ubiquitin specific protease 4) (enzyme, UniProt Q13107 1-963)
chain: B3 chain
Regarding B4, the binding result in test [4] is recorded as “binds”; in test [5] it was “no binding”.

For the origin of these results see article PMC12199328.
